# According to the supplement of paper PMC8728848:
# The list shows a part of the results.
# B1: Clrb (Mus musculus) (protein)
# chain: ITGATKTEQIPVNKTYAACPQNWIGVENKCFYFSEYPSNWTFAQAFCMAQEAQLARFDNQDELNFLMRYKANFDSWIGLHRESSEHPWKWTDNTEYNNTIPIRGEERFAYLNNNGISSTRIYSLRMWICSKLNSYSLHCQTPFFPSGTKHHHHHHHHG
# Tests used:
# Test in all cases: glycan array binding signal (z-score within array); higher = stronger binding
# Conditions in all cases: glycan notation: IUPAC condensed, linker removed
# [1] = target: Gal(a1-3)Gal(b1-3)GlcNAc(b1-2)Man
# Method in brief: (§1)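 Negative Z-scores can be read as non-binding. The Z-score is calculated within each array and then averaged across arrays of one protein sequence at different concentrations or buffers and across linkers. Arrays, 3228 in all, were curated from the Consortium for Functional Glycomics database and kept only where the protein sequence was available.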
# [2] = target: Gal(a1-3)Gal(b1-3)GlcNAc(b1-2)Man(a1-3)[Gal(a1-3)Gal(b1-3)GlcNAc(b1-2)Man(a1-6)]Man(b1-4)GlcNAc(b1-4)GlcNAc
# Method in brief: as §1
# [3] = target: Gal(a1-3)Gal(b1-3)GlcNAc(b1-3)GalNAc
# Method in brief: as §1
# [4] = target: Gal(a1-3)Gal(b1-3)GlcNAc(b1-6)GalNAc
# Method in brief: as §1
# [5] = target: Gal(a1-3)Gal(b1-3)[Fuc(a1-4)]GlcNAc(b1-2)Man(a1-3)[Gal(a1-3)Gal(b1-3)[Fuc(a1-4)]GlcNAc(b1-2)Man(a1-6)]Man(b1-4)GlcNAc(b1-4)GlcNAc
# Method in brief: as §1
# [6] = target: Gal(a1-3)Gal(b1-4)Glc
# Method in brief: as §1
# [7] = target: Gal(a1-3)Gal(b1-4)GlcNAc
# Method in brief: as §1
# [8] = target: Gal(a1-3)Gal(b1-4)GlcNAc(b1-2)Man
# Method in brief: as §1
# [9] = target: Gal(a1-3)Gal(b1-4)GlcNAc(b1-2)Man(a1-3)[Gal(a1-3)Gal(b1-4)GlcNAc(b1-2)Man(a1-6)]Man(b1-4)GlcNAc(b1-4)GlcNAc
# Method in brief: as §1
# [10] = target: Gal(a1-3)Gal(b1-4)GlcNAc(b1-3)GalNAc
# Method in brief: as §1
# [11] = target: Gal(a1-3)Gal(b1-4)GlcNAc(b1-6)GalNAc
# Method in brief: as §1
# [12] = target: Gal(a1-3)Gal(b1-4)[Fuc(a1-3)]GlcNAc
# Method in brief: as §1
# [13] = target: Gal(a1-3)Gal(b1-4)[Fuc(a1-3)]GlcNAc(b1-2)Man(a1-3)[Gal(a1-3)Gal(b1-4)[Fuc(a1-3)]GlcNAc(b1-2)Man(a1-6)]Man(b1-4)GlcNAc(b1-4)GlcNAc
# Method in brief: as §1
# [14] = target: Gal(a1-3)GalNAc
# Method in brief: as §1
# [15] = target: Gal(a1-3)[Gal(a1-4)]Gal(b1-4)GlcNAc
# Method in brief: as §1
# [16] = target: Gal(a1-4)Gal(b1-3)GlcNAc(b1-2)Man(a1-3)[Gal(a1-4)Gal(b1-3)GlcNAc(b1-2)Man(a1-6)]Man(b1-4)GlcNAc(b1-4)GlcNAc
# Method in brief: as §1
# [17] = target: Gal(a1-4)Gal(b1-4)Glc
# Method in brief: as §1
# [18] = target: Gal(a1-4)Gal(b1-4)GlcNAc
# Method in brief: as §1
# [19] = target: Gal(a1-4)Gal(b1-4)GlcNAc(b1-2)Man(a1-3)[Gal(a1-4)Gal(b1-4)GlcNAc(b1-2)Man(a1-6)]Man(b1-4)GlcNAc(b1-4)GlcNAc
# Method in brief: as §1
# [20] = target: Gal(a1-4)Gal(b1-4)GlcNAc(b1-3)Gal(b1-4)Glc
# Method in brief: as §1
# [21] = target: Gal(a1-4)GlcNAc
# Method in brief: as §1
# [22] = target: Gal(a1-6)Glc
# Method in brief: as §1
# [23] = target: Gal(b1-2)Gal
# Method in brief: as §1
# [24] = target: Gal(b1-3)Gal
# Method in brief: as §1
# [25] = target: Gal(b1-3)Gal(b1-4)GlcNAc
# Method in brief: as §1
# [26] = target: Gal(b1-3)GalNAc
# Method in brief: as §1
# [27] = target: Gal(b1-3)GalNAc(a1-3)[Fuc(a1-2)]Gal(b1-4)Glc
# Method in brief: as §1
# [28] = target: Gal(b1-3)GalNAc(a1-3)[Fuc(a1-2)]Gal(b1-4)GlcNAc
# Method in brief: as §1
# [29] = target: Gal(b1-3)GalNAc(b1-3)Gal
# Method in brief: as §1
# [30] = target: Gal(b1-3)GalNAc(b1-3)Gal(a1-4)Gal(b1-4)Glc
# Method in brief: as §1
# [31] = target: Gal(b1-3)GalNAc(b1-4)Gal(b1-4)Glc
# Method in brief: as §1
# [32] = target: Gal(b1-3)GalNAc(b1-4)[Neu5Ac(a2-3)]Gal(b1-4)Glc
# Method in brief: as §1
# [33] = target: Gal(b1-3)GlcNAc
# Method in brief: as §1
# [34] = target: Gal(b1-3)GlcNAc(a1-3)Gal(b1-4)GlcNAc
# Method in brief: as §1
# [35] = target: Gal(b1-3)GlcNAc(a1-6)Gal(b1-4)GlcNAc
# Method in brief: as §1
# [36] = target: Gal(b1-3)GlcNAc(b1-2)Man
# Method in brief: as §1
# [37] = target: Gal(b1-3)GlcNAc(b1-2)Man(a1-3)[Gal(b1-3)GlcNAc(b1-2)Man(a1-6)]Man(b1-4)GlcNAc(b1-4)GlcNAc
# Method in brief: as §1
# [38] = target: Gal(b1-3)GlcNAc(b1-2)Man(a1-3)[Gal(b1-3)GlcNAc(b1-2)Man(a1-6)]Man(b1-4)GlcNAc(b1-4)[Fuc(a1-6)]GlcNAc
# Method in brief: as §1
binder,measurement,setting,value
B1,glycan array binding signal (z-score),[1],-0.331
same,glycan array binding signal (z-score),[2],-0.454
same,glycan array binding signal (z-score),[3],-0.437
same,glycan array binding signal (z-score),[4],-0.328
same,glycan array binding signal (z-score),[5],-0.064
same,glycan array binding signal (z-score),[6],-0.317
same,glycan array binding signal (z-score),[7],-0.349
same,glycan array binding signal (z-score),[8],-0.442
same,glycan array binding signal (z-score),[9],-0.409
same,glycan array binding signal (z-score),[10],-0.505
same,glycan array binding signal (z-score),[11],-0.486
same,glycan array binding signal (z-score),[12],0.12
same,glycan array binding signal (z-score),[13],-0.549
same,glycan array binding signal (z-score),[14],-0.059
same,glycan array binding signal (z-score),[15],-0.144
same,glycan array binding signal (z-score),[16],-0.293
same,glycan array binding signal (z-score),[17],-0.22
same,glycan array binding signal (z-score),[18],-0.1
same,glycan array binding signal (z-score),[19],-0.426
same,glycan array binding signal (z-score),[20],-0.419
same,glycan array binding signal (z-score),[21],-0.362
same,glycan array binding signal (z-score),[22],-0.176
same,glycan array binding signal (z-score),[23],-0.244
same,glycan array binding signal (z-score),[24],-0.427
same,glycan array binding signal (z-score),[25],-0.335
same,glycan array binding signal (z-score),[26],-0.409
same,glycan array binding signal (z-score),[27],-0.432
same,glycan array binding signal (z-score),[28],-0.313
same,glycan array binding signal (z-score),[29],-0.385
same,glycan array binding signal (z-score),[30],-0.383
same,glycan array binding signal (z-score),[31],-0.341
same,glycan array binding signal (z-score),[32],-0.45
same,glycan array binding signal (z-score),[33],-0.411
same,glycan array binding signal (z-score),[34],-0.251
same,glycan array binding signal (z-score),[35],-0.468
same,glycan array binding signal (z-score),[36],-0.302
same,glycan array binding signal (z-score),[37],-0.404
same,glycan array binding signal (z-score),[38],-0.205
